Measured values taken from the supplement of paper PMC3334620.
Whole data set: some 33,000 sequences, median “E-score (-0.5 to 0.5)” near -0.016, cut for the highest 2% near 0.32. The list shows a part of the results.

Target: T1, Stp1 (UniProt B3LFK1)
T1 sequence: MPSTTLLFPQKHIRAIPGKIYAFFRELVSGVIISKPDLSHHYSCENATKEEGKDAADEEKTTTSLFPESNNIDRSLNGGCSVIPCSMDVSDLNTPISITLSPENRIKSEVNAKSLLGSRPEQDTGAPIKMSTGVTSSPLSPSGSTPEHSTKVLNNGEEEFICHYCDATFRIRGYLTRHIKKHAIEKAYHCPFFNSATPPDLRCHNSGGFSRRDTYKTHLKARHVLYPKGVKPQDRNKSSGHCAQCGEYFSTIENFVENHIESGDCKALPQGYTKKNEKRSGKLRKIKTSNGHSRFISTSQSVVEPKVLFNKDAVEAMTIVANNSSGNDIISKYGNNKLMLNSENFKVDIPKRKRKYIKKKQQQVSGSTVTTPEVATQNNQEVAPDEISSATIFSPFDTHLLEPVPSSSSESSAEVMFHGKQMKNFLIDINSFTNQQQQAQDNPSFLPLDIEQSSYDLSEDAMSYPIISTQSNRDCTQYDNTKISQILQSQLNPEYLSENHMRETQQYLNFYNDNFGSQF
Assay: PBM E-score (8-mer binding enrichment) (E-score (-0.5 to 0.5)); higher = stronger / more preferred TF binding; most listed sequences are background and not binding sites
Conditions: protein concentration: 200 nM; construct: GST-full length
Method in brief: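 Detection of bound protein used fluorescent anti-GST, with scans normalised by masliner. The proteins were GST-tagged yeast transcription factors applied at about 100-200 nM to universal all-10-mer Agilent arrays made double-stranded by primer extension. Each ungapped eight-base word, pooled with its reverse complement, was scored with an E-score from the Universal PBM Analysis Suite.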

| Sequence | PBM E-score |
| --- | --- |
| ATGCTCAC | -0.251 |
| CCTTCGCC | 0.118 |
| CTCCTACA | -0.156 |
| CCGGATTC | -0.134 |
| CATACAAC | 0.0945 |
| AACCTGGA | -0.137 |
| CCCCTCAG | -0.336 |
| TGCTACAA | 0.0595 |
| AACCACTT | -0.046 |
| AGCTTCCC | -0.393 |
| CATCCTTC | -0.165 |
| CGGTATAG | -0.184 |
| TACGCCCA | -0.0659 |
| AAACAATT | 0.159 |
| AAACGGTG | 0.1 |
| CTTAATGC | 0.181 |
| CTAATTAA | 0.0857 |
| GGACGGCC | 0.16 |
| AACAATAT | 0.302 |
| ACAAACCC | -0.0458 |
| AGGGGAGC | -0.195 |
| CACCGGAG | -0.0522 |
| GCTAAAAC | 0.0711 |
| CGCCTCAC | 0.395 |
| CAGAGTTC | -0.0264 |

| Sequence | PBM E-score |
| --- | --- |
| CCCGCTAG | -0.266 |
| AGTGCCGA | 0.322 |
| GAGATAGC | -0.111 |
| GAACTTCA | -0.0508 |
| GGTGTCAA | -0.03 |
| TTCGGAAA | 0.0851 |
| CAACCAAC | -0.103 |
| AGCCTCCA | -0.184 |
| ATTAGATA | 0.11 |
| GAATTTCA | -0.153 |
| CTCATTGC | 0.092 |
| CCCTCTCG | -0.378 |
| CCAGGCAC | -0.174 |
| AGTATTGC | 0.012 |
| CTCTGCGC | 0.0316 |
| GGTACAAC | -0.0615 |
| CTAGCCTA | -0.0144 |
| CCTGACGA | 0.131 |
| CGCCCTTC | 0.156 |
| TAGCGTAA | 0.0549 |
| AGGACGGG | -0.271 |
| GAAGGAAA | 0.0243 |
| GCAGTTAA | 0.0839 |
| ATTCCTTG | 0.0722 |
| TCCTACCA | -0.213 |

| Sequence | PBM E-score |
| --- | --- |
| ACATCTAC | -0.0357 |
| GGGTTCGA | -0.163 |
| TGAGGGCA | -0.154 |
| GGGTCAAC | -0.153 |
| AACGCTGT | 0.137 |
| AGCCGCAC | 0.42 |
| CATCGTTC | 0.0739 |
| AACGTCAG | -0.229 |
| CAAATGCG | 0.117 |
| ATTGAACC | -0.0807 |
| AATATCCC | -0.0616 |
| ATTAGGGC | -0.0698 |
| CCAAAAAA | 0.252 |
| GCTCCCCC | -0.314 |
| AGGCTGAT | -0.155 |
| CGTTGGGC | -0.137 |
| GAACTCTA | -0.0132 |
| GGAGCGAC | -0.102 |
| GGGCATAA | 0.0801 |
| ACTCTTGA | -0.0263 |
| TCAATTAA | 0.238 |
| ATAACTCA | -0.0274 |
| CTCTTTAA | -0.0371 |
| GAACGTAC | 0.0539 |
| ACGCATCG | 0.0171 |

| Sequence | PBM E-score |
| --- | --- |
| GTGATCTA | 0.0423 |
| CATACGTA | 0.209 |
| ACCACATA | 0.153 |
| GCTAGGTA | -0.121 |
| TCCCACGA | -0.0504 |
| CCGGACTA | 0.0944 |
| TAAACGCA | -0.0863 |
| AGATGAAT | -0.155 |
| AGGGTAAG | -0.163 |
| AACAAATA | 0.279 |
| ATTACACG | 0.152 |
| CACACGAC | -0.0216 |
| AAGTTGTG | 0.0756 |
| CGGCATAC | 0.27 |
| AAAAACGT | -0.111 |
| AGGCTTAC | -0.116 |
| ATCGAAGG | 0.0854 |
| GTGTGAAA | 0.185 |
| GTAGTACA | 0.0272 |
| ATCACGAT | -0.0303 |
| GGACAGGA | -0.174 |
| ACGCTAAG | 0.00258 |
| CATCCACA | -0.0242 |
| CGACCATC | -0.168 |
| ATGTGCTA | -0.0142 |

| Sequence | PBM E-score |
| --- | --- |
| AACTTGAG | -0.221 |
| AGTAACTC | -0.137 |
| GTCCCACA | -0.222 |
| ACGCTTTA | -0.211 |
| TAATCTGA | -0.0381 |
| CAGGTCAC | -0.288 |
| CGATTTCC | -0.0263 |
| CTATCTGA | -0.196 |
| GCCGTCGC | 0.351 |
| GGCAGATA | -0.0304 |
| CCCACCGA | -0.24 |
| AGTGTGGG | -0.13 |
| AGCAAAGG | 0.117 |
| GGCGATTA | 0.29 |
| AATGCTAA | -0.0111 |
| CAGGCGAC | -0.138 |
| ACGCAGAG | -0.0454 |
| GGTTAAGA | 0.0755 |
| ACATGACC | -0.252 |
| TCAGATCA | -0.0247 |
| GTACGAGA | 0.019 |
| AGTAAGAC | -0.0276 |
| GGTGAAAC | 0.0103 |
| CTTGTCCC | 0.0187 |
| ATTTCGAA | 0.151 |

| Sequence | PBM E-score |
| --- | --- |
| GAAACTCC | -0.192 |
| CTTTTATC | 0.0442 |
| AGGTCAAG | -0.223 |
| CCCGCTTA | 0.0273 |
| GCAGCTCC | -0.235 |
| CGTAACGC | 0.124 |
| CAGCCATG | 0.0668 |
| AGCAAATA | 0.111 |
| GGCTCTAA | 0.177 |
| CAAGGGTC | -0.138 |
| AAGCTATA | 0.106 |
| GTTGCGTA | 0.0808 |
| CGAAATAC | 0.11 |
| AACGGAGT | 0.106 |
| ACGTAAGC | -0.088 |
| CGAGGTGC | 0.0197 |
| GCTAGCTA | -0.111 |
| ATCTCGTA | 0.166 |
| GGTTAGAA | -0.217 |
| TACTAGAA | 0.191 |
| GAGCCCAA | 0.0694 |
| CTCGAGTC | 0.0231 |
| CATGCACC | -0.157 |
| ATTATATC | -0.0228 |
| ATGGAGAC | -0.127 |

| Sequence | PBM E-score |
| --- | --- |
| AAAGTTAT | 0.113 |
| CCAGATAG | -0.136 |
| CGGTATTC | -0.0265 |
| GGGTTGCA | -0.219 |
| AAGATTGC | 0.0941 |
| CTGCGTGA | 0.0745 |
| GGTATGAA | -0.0273 |
| CGTGCTTA | 0.219 |
| ACTATTCT | -0.0825 |
| GCCATCCC | -0.0793 |
| CCTACATC | -0.191 |
| GCTCATCA | 0.0105 |
| ACAGACAC | 0.0213 |
| ACACCGAT | -0.123 |
| CAATATAC | 0.0063 |
| CTCGCGTC | -0.113 |
| CCGGCGTC | 0.0446 |
| ACCGCATA | 0.0344 |
| AGTTGACA | 0.142 |
| TCGATCAA | -0.0721 |
| AGAACGCA | -0.00423 |
| TGAGCAAA | 0.0471 |
